The values below come from ChEMBL document CHEMBL4888484, “Replenishing the malaria drug discovery pipeline: Screening and hit evaluation of the MMV Hit Generation Library 1 (HGL1) against asexual blood stage Plasmodium falciparum ,using a nano luciferase reporter read-out” (2022).

In all, about 150,000 compounds went through this assay and about 540 (0.36%) showed an effect of 50% or more. The list shows a part of the results.

Usually % Inhibition stands for the relative decrease from the control value, in per cent.

The test concerns Plasmodium falciparum. Kind of test: Primary screen in NF54 nanoGlo assay, in single point, at 2uM, 72h; a lower Z score goes with more inhibition. It is filed as functional, Erythrocyte. The following applies: timepoint 72 hour.
Turning to `O=C1N[C@H]2C[C@@H](C(=O)NC[C@H]3O[C@H](CCOc4cc(-c5ccccc5)ccc41)CC[C@@H]3O)N(Cc1ccc(Cl)c(F)c1)C2`, the “% Inhibition” value was found to be 37% and the Z score is recorded as -4.16.
The corresponding values for `Cc1nccn1CC[C@H](C)N1CCC2(CC1)CN(CCC(C)C)C(=O)O2` are -8% and 1.55.
Taken in the same sequence, the figures for `CCN(CC)C(=O)N1CC(N(Cc2ccccn2)S(C)(=O)=O)C1` were 2% and -0.35.
Take `Cc1noc(C)c1CC(=O)Nc1nc(-c2ccc(S(=O)(=O)N(C)C)cc2)cs1`: the “% Inhibition” value was determined as 8% and the Z score is -1.09.
On to `Cc1ccc(F)c(Cn2cnc3nc(C)c(CCO)c(=O)n32)c1`, for which the “% Inhibition” value is reported as -6% and the Z score came to 1.19.
Taken in the same sequence, the figures for `O=C(CCn1cncn1)Nc1cc(Cl)cc(Cl)c1` were -13% and 1.68.
The corresponding values for `O=C(Cc1cccs1)NCCc1ccsc1` are -2% and 0.3.
The corresponding values for `CO[C@H]1CCCOC12CCN(C(=O)CCn1c(C)nc3ccccc31)CC2` are -10% and 0.96.
As to `Cc1c(Cl)cccc1NC(=O)CC(=O)NCCNC(=O)C(C)C`, the “% Inhibition” value is -5% and the Z score is reported as 1.08.
Take `O=C(c1ccsc1)N1CC[C@@H](c2cccs2)S(=O)(=O)CC1`: the “% Inhibition” value is listed as -15% and the Z score was 2.49.
The corresponding values for `Cc1cccc(CN2CCN(Cc3ccncc3)[C@@H]3CS(=O)(=O)C[C@@H]32)n1` are -11% and 2.25.
Taken in the same sequence, the figures for `COC[C@H]1CC[C@H]1NC(=O)c1sccc1OC` were 3% and -0.42.
As for `Cn1nnc2cc(CN(CC(=O)O)C3CCCC3)ccc21`, the “% Inhibition” value was -18% and the Z score is 1.61.
The corresponding values for `O=C(c1cn2cc(-c3ccc4c(c3)OCO4)ccc2n1)N1CCN(Cc2ccccc2)CC1` are -8% and 1.24.
On to `CCOC(=O)[C@@]1(CCOc2ccccc2)CCCN(C)C1`, for which the “% Inhibition” value is 6% and the Z score was -0.9.
The corresponding values for `CC1(C)CN(C(=O)c2cc(N3CCCC3=O)cc(C(F)(F)F)c2)CCN1` are -3% and 0.43.
Taken in the same sequence, the figures for `CCOc1ccc(-c2noc([C@@H]3Cc4ccccc4N3C(C)=O)n2)cc1Cl` were 19% and -2.19.
With `O=C(Nc1ccc(Br)cn1)c1ccc(-c2ccc(Cl)c(Cl)c2)o1`, the “% Inhibition” value worked out at 31% and the Z score is reported as -3.51.
Taken in the same sequence, the figures for `CCOC(=O)CNc1cccc(C(C)(F)F)c1` were 4% and -0.49.
Take `O=S1(=O)CCc2nnc(-c3ccc4c(c3)OCCO4)n2CC1`: the “% Inhibition” value turned out to be 2% and the Z score is -0.36.
As to `CCC(C(=O)Nc1ccc(C)c(NC(=O)C(CC)c2ccccc2)c1)c1ccccc1` (stereo not drawn), the “% Inhibition” value is -27% and the Z score came out at 3.19.
Taken in the same sequence, the figures for `CC1CCN(c2ncc3c(n2)CC[C@H](C(=O)N(C)CC(=O)N2CCCCCC2)C3)CC1` were 5% and -0.8.
Taken in the same sequence, the figures for `CCC1(CNC(=O)N(Cc2ccccn2)Cc2sccc2C)CC1` were -22% and 2.42.
The corresponding values for `CCn1cnnc1CN(C)Cc1nc(COC)no1` are 1% and -0.12.
As to `N#Cc1ccc(C(=O)Nc2ccccc2OC[C@H]2CCCO2)cn1`, the “% Inhibition” value is recorded as -8% and the Z score came out at 1.18.
As to `CCCNC(=O)CCc1nc(N2CC(C)CC(C)C2)c2c(C)noc2n1` (stereo not drawn), the “% Inhibition” value was -5% and the Z score stood at 0.85.
The corresponding values for `CC1CN(Cc2ccccn2)CCC1NC(=O)c1cccc(F)c1` (stereo not drawn) are -1% and 0.18.
Take `CCc1noc(NC(C)=O)c1-c1ccc(OC)c(S(=O)(=O)NCc2cccc(OC)c2)c1`: the “% Inhibition” value worked out at 1% and the Z score is reported as -0.09.
The corresponding values for `O=C(Nc1ccc2c(c1)OCO2)N(Cc1ccco1)C[C@H]1CCCO1` are -4% and 0.54.
The corresponding values for `CCN(CC)CCOc1ccc2nc(N(C)C)sc2c1` [DIAMTHAZOLE] are -15% and 1.86.
For `CN(C(=O)Cc1cnn(C)c1)c1ccc(N2CCOCC2)nc1`, the “% Inhibition” value was -3% and the Z score came out at 0.35.
In the case of `O=C(C1CCCC1)N1CC[C@@]2(CCCN(CC3CC3)C2=O)C1`, the “% Inhibition” value is -13% and the Z score was 1.93.
The corresponding values for `CCN1C[C@@H](CN(C)C(=O)c2cc(Cn3nc(C)cc3C)[nH]n2)CC1=O` are 4% and -0.55.
Taken in the same sequence, the figures for `N#Cc1ccccc1OC1CCC(N)CC1` (stereo not drawn) were -5% and 0.68.
With `Cc1cccc(NC(=O)Cn2c(C)cc(C)c2-c2nc(C(C)C)no2)c1`, the “% Inhibition” value was -8% and the Z score was 1.06.
The corresponding values for `Nc1nc(CCCNCc2ccc(Cl)o2)cs1` are -25% and 2.72.
For `COc1ccc2c(c1)N(C(=O)CCn1cc(C)cn1)[C@@H](C)C(=O)N2`, the “% Inhibition” value was -13% and the Z score is on record as 1.97.
Turning to `CN(C)CCN(C(=O)c1ccsc1)C1CCOCC1`, the “% Inhibition” value is -13% and the Z score came to 2.38.
The corresponding values for `CCOC[C@H]1CCCN1C(=O)Nc1ccc(Cl)c(C(=O)OCC)c1` are -3% and 0.65.
Taken in the same sequence, the figures for `CC1CCN(C(=O)COC(=O)CCC2NC(=O)NC2=O)C2CCCCC12` (stereo not drawn) were -16% and 1.74.
Taken in the same sequence, the figures for `Cc1nn(C)cc1NC(=O)N[C@@H](C)Cc1ccsc1` were -4% and 0.48.
With `C=CCn1nc(C(=O)O)c2c1CC[C@H](N(C)Cc1noc(CC)n1)C2`, the “% Inhibition” value is recorded as 1% and the Z score is -0.11.
In the case of `COCc1nc(NC(=O)CCc2nc3cccnc3[nH]2)n[nH]1`, the “% Inhibition” value turned out to be 5% and the Z score is given as -0.54.
Taken in the same sequence, the figures for `CCN(c1ccc(C(=O)N[C@@H](C(=O)OC)c2ccc(OC)c(O)c2)cc1)C(C)C` were -8% and 1.28.
For `COc1ccc(Cl)cc1C(=O)N1CCC[C@H](c2ccn(C)n2)C1`, the “% Inhibition” value was -1% and the Z score is on record as 0.12.
The corresponding values for `CC(C)CN1C[C@H](CNS(=O)(=O)c2cccnc2)OCC1=O` are 0% and -0.02.
The corresponding values for `Cc1ccc(OCC(=O)N2CCC[C@H]2c2cccs2)cn1` are 7% and -0.67.
Taken in the same sequence, the figures for `CN(Cc1ccc[nH]1)C(=O)[C@@]1(C)CC1(F)F` were -20% and 3.07.
Consider `CCOc1ccc(NC(=O)N2CCC[C@H]2c2nc3cc(-c4ccccc4C(F)(F)F)ccc3o2)cc1`, for which the “% Inhibition” value was 5% and the Z score is reported as -0.66.
The corresponding values for `CCN(C)C(=O)c1cc(-c2ccc(C3CCCCC3)cc2)on1` are -10% and 0.96.
For the molecule `CCCn1cc(C(=O)N(C)C[C@H]2CCOC2)c(C)n1`, the “% Inhibition” value was determined as 11% and the Z score is given as -1.56.
Taken in the same sequence, the figures for `COCCN(CCOC)C1CN(C(=O)OCCCF)C1` were -4% and 0.62.
The corresponding values for `CC1(C)[C@@H]2CC[C@]13CS(=O)(=O)N(Cc1nccn1C(F)F)[C@@H]3C2` are 3% and -0.36.
Taken in the same sequence, the figures for `Cc1cnc(C2CC2)n1CCNS(=O)(=O)c1ccccc1` were -11% and 1.48.
